Several values for one entry are separate records, joined by “and”; a condition that tells them apart may be missing. Identical values can stand only once. Hit rate of the full screen: of about 420,000 compounds, about 50,000 (12%) were called active. The shares of active, inactive and inconclusive entries below differ from those in the screen. Calls follow the shape of the dose curve; as a rule, active = well fitted inhibition curve with a large enough effect; inconclusive = small, poorly fitted or top-dose-only effect; inactive = flat fitted curve, though single readings scatter. Potencies of inconclusive entries are doubtful fits and often do not repeat.
Test: qHTS for Inhibitors of human tyrosyl-DNA phosphodiesterase 1 (TDP1): qHTS in cells in presence of CPT; also: nearly all actives have a fitted effect of over 55% in size
Conditions: chicken DT40 Tdp1-/-;hTDP1 cells + 20 nM CPT, ATP luminescence, 48 h; series mostly up to 46.2 µM
In short: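 Cell growth measured by CellTiter-Glo luminescence after a minimum 48 h, 37 C compound exposure with 20 nM CPT in Tdp1-knockout DT40 cells stably expressing hTDP1, seeded 400/well; qHTS titration format.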
Potency is read from the fitted curve at half-maximal effect; tags tell the direction and shape of the fitted curve.

Compound | Potency
COc1ccc(NC(=O)c2ccc(Cl)cc2)c[n+]1[O-] | inactive
Cc1cc(C)nc(SCC(=O)NC2=NN=C(c3ccc(Br)cc3)CS2)n1 | active: 12.6 µM
O=C(NCC(c1ccco1)N1CCCCC1)c1ccc(COc2ccccc2)cc1 (centres undefined) | inconclusive: 20.6 µM [inhibitor, single point]
COc1ccc(N=C2CCS(=O)(=O)c3sccc32)cc1 | active: 9.2 µM
CCOC(=O)c1ccc(NC(=S)N2CCSC2c2c(F)cc(F)cc2F)cc1 (centres undefined) | active: 23.1 µM
O=C(c1cccc(S(=O)(=O)N2CCN(c3ccccc3)CC2)c1)N1CC=C(c2ccccc2)CC1 | inconclusive: 13 µM [inhibitor, partial curve]
COC(=O)C1=CN(Cc2ccc(OC)c(OC)c2)C=C(C(=O)OC)C1c1cccc(O)c1 | inconclusive: 25.9 µM [inhibitor, single point]
COc1cc(/C=N/Nc2ccc(F)cc2F)cc(OC)c1OC | inconclusive: 29.1 µM [inhibitor, single point]
COCC(=O)N1CCC[C@@]2(CCN(Cc3cc(C(F)(F)F)cc(C(F)(F)F)c3)C2)C1 | inconclusive: 25.9 µM [inhibitor, single point]
Cc1cc(OCC(=O)Nc2nccs2)c2c(C)c(C)c(=O)oc2c1 | inconclusive: 2.59 µM [inhibitor, full curve]
Cc1ccc(S(=O)(=O)N2CC3(O)CN(C(=O)OC(C)C)N(C(=O)OC(C)C)CC3(OC(=O)NC3CCCC3)C2)cc1 (centres undefined) | inconclusive: 16.4 µM [inhibitor, single point]
CC(=O)N1c2ccc(S(=O)(=O)N3CCC(C(=O)N4CCCC(C)C4)CC3)cc2CC1C (centres undefined) | active: 20.6 µM
COc1cc(NC(=O)c2cc(-c3cccc(O)c3)on2)cc(OC)c1OC | inconclusive: 29.1 µM [inhibitor, single point]
CCc1cccc(NC(=O)CSc2ncc3c(n2)-c2cc(Cl)ccc2N(C)S3(=O)=O)c1 | inconclusive: 29.1 µM [inhibitor, single point]
COc1ccc(-c2oc3ccccc3c2C#Cc2cncn2C)cc1 | active: 16.4 µM
Cc1ccc(S(=O)(=O)N2CCN(C(=O)CN3C(=O)c4ccccc4C3=O)CC2)c(C)c1 | inactive
CCCCNC(=O)CSc1nnc(-c2cccc(S(=O)(=O)N3CCOCC3)c2)o1 | inactive
CCOC(=O)c1ccc(N2C(=O)c3[nH]nc(-c4ccc(OC)cc4)c3C2c2cccc(O)c2)cc1 (centres undefined) | active: 18.4 µM
Cc1c(N)nc([C@H](CC(N)=O)NC[C@H](N)C(N)=O)nc1C(=O)N[C@H](C(=O)N[C@H](C)[C@@H](O)[C@H](C)C(=O)N[C@H](C(=O)NCCc1nc(-c2nc(C(=O)NCCCCN=C(N)N)cs2)cs1)[C@@H](C)O)[C@@H](O[C@@H]1O[C@@H](CO)[C@@H](O)[C@H](O)[C@@H]1O[C@H]1O[C@H](CO)[C@@H](O)[C@H](OC(N)=O)[C@@H]1O)c1cnc[nH]1 | active: 3.66 µM and active: 1.19 µM
Cc1ccc(C)c(-n2cc(CN3CCCN(C=O)CC3)c(-c3ccccc3)n2)c1 | inactive
CCC(=O)N1CCc2cc(S(=O)(=O)NCCCN(CC)Cc3ccccc3)ccc21 | inconclusive: 14.6 µM [inhibitor, partial curve]
NC(=O)C1CN(C(=O)c2nn(Cc3ccccc3)c(=O)c3ccccc23)c2ccccc2O1 (centres undefined) | inconclusive: 18.4 µM [inhibitor, single point]

Compound | Potency
c1ccc2nc3c(ccc4ccccc43)cc2c1 | inactive
O=C(Cn1cnc2cc([N+](=O)[O-])ccc2c1=O)Nc1cccc(S(=O)(=O)N2CCCCC2)c1 | inconclusive: 29.1 µM [inhibitor, single point]
COc1cccc(C(=O)Nc2ccc(C3CC3(Cl)Cl)cc2)c1 (centres undefined) | inconclusive: 23.1 µM [inhibitor, single point]
O=c1cc(COc2ccccc2Cl)nc2scc(-c3ccccc3)n12 | inconclusive: 11.6 µM [inhibitor, partial curve]
O=C(NCc1ccccc1)c1ccc(N2CCC3(CC2)CC(c2ccc(Cl)cc2)=NO3)c([N+](=O)[O-])c1 | active: 6.51 µM
COc1ccccc1NC(=O)Cn1nnc(C(=O)NCc2cccs2)c1N | active: 820 nM and active: 580 nM
COC(=O)c1ccc(Cn2nnc3c(=O)[nH]c(C4CCN(S(=O)(=O)c5cc(C)ccc5C)CC4)nc32)cc1 | active: 23.1 µM
Cc1nn(-c2ccccn2)c2c1C(=O)CC(C)(C)C2N=[N+]=[N-] (centres undefined) | inconclusive: 29.1 µM [inhibitor, single point]
OCCOC1CCCc2oc(-c3ccccc3)c(C#CC3(O)CCCCC3)c21 (centres undefined) | inconclusive: 29.1 µM [inhibitor, single point]
C#CCNC(=O)C[C@@H]1C[C@@]2(C(=O)OCC)CCCC=C2N(Cc2ccc(Cl)cc2Cl)C1=O | inconclusive: 20.6 µM [inhibitor, single point]
CC(NCCCSc1ccccc1)C(O)c1ccc(O)cc1 (centres undefined) | inconclusive: 29.1 µM [inhibitor, single point]
COc1ccc(C(=O)COc2cccc(NC(=O)c3ccco3)c2)cc1 | inconclusive: 5.8 µM [inhibitor, partial curve]
CC(=O)O/C(=C\c1cn(C(C)=O)c2ccccc12)C(=O)O | inactive
Cc1ccc(Cl)cc1N1CCN(C(=O)Cn2nc(C)c3sc4ccccc4c3c2=O)CC1 | inactive
CCOc1ccccc1NC(=O)C1CCN(C(=O)c2cccs2)CC1 | inactive
Nc1ccc(-c2nc3ccc([N+](=O)[O-])cc3[nH]2)cc1 | inconclusive: 29.1 µM [inhibitor, single point]
COc1cccc(NC(=O)CSc2nnc(-c3cc(C)[nH]n3)n2N)c1 | inactive
O=C(OCCNC(=O)c1ccc2ccccc2n1)c1ccc(F)cc1 | inconclusive: 16.4 µM [inhibitor, partial curve]
N=c1n(Cc2ccccc2)c2ccccc2n1CC(O)COc1ccccc1 (centres undefined) | active: 7.31 µM
COc1ccc(C2CC(=O)Oc3cc(C)cc(C)c32)cc1 (centres undefined) | inconclusive: 29.1 µM [inhibitor, single point]
O=C(Nc1cccc(Cl)c1)N(Cc1nc2ccccc2c(=O)[nH]1)Cc1cccs1 | active: 23.1 µM
Cc1ccc(C2NC(=O)c3n[nH]c(-c4cccs4)c32)cc1 (centres undefined) | inconclusive: 20.6 µM [inhibitor, partial curve]

Compound | Potency
C[C@]12C=CC(=O)C=C1[C@@H](F)C[C@@H]1[C@@H]2[C@@H](O)C[C@@]2(C)[C@H]1CC[C@]2(O)C(=O)CO | inconclusive: 23.7 µM [inhibitor, single point] and inconclusive: 2.37 µM [inhibitor, partial curve, poor fit]
O=C(Nc1ccc(Cl)c(S(=O)(=O)N2CCOCC2)c1)c1cc2ccccc2oc1=O | inconclusive: 18.4 µM [inhibitor, single point]
O=C(c1ncn(Cc2ccccc2)c1C(=O)N1CCN(c2ccccc2)CC1)N1CCN(c2ccccc2)CC1 | inconclusive: 20.6 µM [inhibitor, single point]
COc1ccc(CC(=O)N/N=C\c2cc(Br)c(O)c(Br)c2)cc1 | inactive
Cc1cccc(-c2nc(NCCCN(C)C)c3ccccc3n2)c1 | inconclusive: 29.1 µM [inhibitor, single point]
CN(C)CCNC(=O)CN1C(=O)CSc2ccc(S(=O)(=O)N3CCCCC3)cc21 | inactive
O=c1[nH]c(=S)[nH]c2c1C(C1CCCCC1)OC(C1CCCCC1)C2 (centres undefined) | inconclusive: 29.1 µM [inhibitor, single point]
COc1ccccc1-c1ccc2c(c1)C(C)(Cc1ccc(Cl)c(Cl)c1)C(=O)N2 (centres undefined) | active: 20.6 µM
CC1CC2C3CCC4=CC(=O)C=C[C@@]4(C)[C@]3(F)C(O)C[C@]2(C)[C@]1(O)C(=O)CO (some centres undefined) | inconclusive: 29.1 µM [inhibitor, single point]
C=CCn1cc(/C=C2\SC(N3CCOCC3)=NC2=O)c2ccccc21 | inconclusive: 16.4 µM [inhibitor, single point]
COc1cccc(-c2ccc3c(c2)O[C@@H](CN(C)C(=O)C2CCOCC2)[C@H](C)CN([C@H](C)CO)S3(=O)=O)c1 | inconclusive: 14.6 µM [inhibitor, partial curve]
CCOC(=O)n1c(=O)oc2ccc(Cl)cc21 | inactive
CCC(C)NC(=O)CCSc1nc(-c2ccc3c(c2)OCO3)cc(C(F)(F)F)n1 (centres undefined) | inconclusive: 18.4 µM [inhibitor, single point]
COc1ccc(NC(=O)CCS(=O)(=O)c2nc(-c3ccc4c(c3)OCO4)cc(C(F)(F)F)n2)cc1OC | inconclusive: 16.4 µM [inhibitor, single point]
CC(C)Oc1ccc(CNC(=S)Nc2ccccc2)cc1Cl | inconclusive: 29.1 µM [inhibitor, single point]
COc1ccc(CN2CCC(Cc3ccccc3)CC2)c(C)c1C | inconclusive: 20.6 µM [inhibitor, single point]
O=C(/C=C/c1ccc(Br)o1)NC(c1ccccc1)c1ccccc1 | active: 9.2 µM
Cc1ccc(NC(=O)CSc2nc(=O)n(Cc3ccccn3)c3c2CCC3)cc1F | inconclusive: 20.6 µM [inhibitor, single point]
O=C(NN1CCN(Cc2ccccc2Cl)CC1)c1ccc(Cl)cc1 | inconclusive: 29.1 µM [inhibitor, single point]
Cc1nc2ccccn2c1CN(C)C(=O)C1CCC(=O)N(Cc2cccc(F)c2)C1 (centres undefined) | inactive
